Common to all, as to experiment: glycan array binding signal (z-score within array); higher = stronger binding
Holding throughout (details): glycan notation: IUPAC condensed, linker removed

One assay deals with GlcNAc(b1-3)Fuc. The procedure, abridged:
(§1)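 From the Consortium for Functional Glycomics database, 3228 arrays were curated, keeping only those whose protein sequence was available. Binding is given as a within-array Z-score averaged across arrays sharing a protein sequence and across linkers. Negative Z-scores can be read as non-binding.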

The target of the next assay is GlcNAc(b1-3)Gal. An outline of the steps:
as §1

Assay [1] deals with GlcNAc(b1-3)Gal(b1-3)GalNAc. An outline of the steps: as §1
The target of the next assay is GlcNAc(b1-3)Gal(b1-4)Glc. The procedure, abridged:
as §1

The target in assay [2] is GlcNAc(b1-3)Gal(b1-4)GlcNAc. The procedure, abridged:
as §1

Assay [3] concerns the target GlcNAc(b1-3)Gal(b1-4)GlcNAc(b1-2)Man(a1-3)[GlcNAc(b1-3)Gal(b1-4)GlcNAc(b1-2)Man(a1-6)]Man(b1-4)GlcNAc(b1-4)GlcNAc. An outline of the steps:
as §1

For assay [4], the target named is GlcNAc(b1-3)Gal(b1-4)GlcNAc(b1-2)Man(a1-3)[GlcNAc(b1-3)Gal(b1-4)GlcNAc(b1-2)Man(a1-6)]Man(b1-4)GlcNAc(b1-4)[Fuc(a1-6)]GlcNAc. An outline of the steps:
as §1

Assay [5] has as its target GlcNAc(b1-3)Gal(b1-4)GlcNAc(b1-2)[GlcNAc(b1-3)Gal(b1-4)GlcNAc(b1-6)]Man(a1-6)[GlcNAc(b1-3)Gal(b1-4)GlcNAc(b1-2)Man(a1-3)]Man(b1-4)GlcNAc(b1-4)GlcNAc. The procedure, abridged: as §1
For assay [6], the target named is GlcNAc(b1-3)Gal(b1-4)GlcNAc(b1-3)Gal(b1-4)GlcNAc. The procedure, abridged: as §1
Assay [7] concerns the target GlcNAc(b1-3)Gal(b1-4)GlcNAc(b1-3)Gal(b1-4)GlcNAc(b1-2)Man(a1-3)[GlcNAc(b1-3)Gal(b1-4)GlcNAc(b1-3)Gal(b1-4)GlcNAc(b1-2)Man(a1-6)]Man(b1-4)GlcNAc(b1-4)GlcNAc. An outline of the steps: as §1
Assay [8] concerns the target GlcNAc(b1-3)Gal(b1-4)GlcNAc(b1-3)Gal(b1-4)GlcNAc(b1-2)Man(a1-3)[GlcNAc(b1-3)Gal(b1-4)GlcNAc(b1-3)Gal(b1-4)GlcNAc(b1-2)Man(a1-6)]Man(b1-4)GlcNAc(b1-4)[Fuc(a1-6)]GlcNAc. The procedure, abridged:
as §1

Assay [9] concerns the target GlcNAc(b1-3)Gal(b1-4)GlcNAc(b1-3)Gal(b1-4)GlcNAc(b1-2)[GlcNAc(b1-3)Gal(b1-4)GlcNAc(b1-3)Gal(b1-4)GlcNAc(b1-6)]Man(a1-6)[GlcNAc(b1-3)Gal(b1-4)GlcNAc(b1-3)Gal(b1-4)GlcNAc(b1-2)Man(a1-3)]Man(b1-4)GlcNAc(b1-4)[Fuc(a1-6)]GlcNAc. An outline of the steps: as §1
Assay [10] addresses GlcNAc(b1-3)Gal(b1-4)GlcNAc(b1-3)Gal(b1-4)GlcNAc(b1-3)Gal(b1-4)GlcNAc(b1-2)Man(a1-3)[GlcNAc(b1-3)Gal(b1-4)GlcNAc(b1-3)Gal(b1-4)GlcNAc(b1-3)Gal(b1-4)GlcNAc(b1-2)Man(a1-6)]Man(b1-4)GlcNAc(b1-4)GlcNAc. An outline of the steps:
as §1

Assay [11] addresses GlcNAc(b1-3)Gal(b1-4)GlcNAc(b1-3)Gal(b1-4)GlcNAc(b1-3)Gal(b1-4)GlcNAc(b1-2)Man(a1-3)[GlcNAc(b1-3)Gal(b1-4)GlcNAc(b1-3)Gal(b1-4)GlcNAc(b1-3)Gal(b1-4)GlcNAc(b1-2)Man(a1-6)]Man(b1-4)GlcNAc(b1-4)[Fuc(a1-6)]GlcNAc. The procedure, abridged: as §1
Assay [12] has as its target GlcNAc(b1-3)Gal(b1-4)GlcNAc(b1-3)Gal(b1-4)GlcNAc(b1-3)Gal(b1-4)GlcNAc(b1-2)[GlcNAc(b1-3)Gal(b1-4)GlcNAc(b1-3)Gal(b1-4)GlcNAc(b1-3)Gal(b1-4)GlcNAc(b1-6)]Man(a1-6)[GlcNAc(b1-3)Gal(b1-4)GlcNAc(b1-3)Gal(b1-4)GlcNAc(b1-3)Gal(b1-4)GlcNAc(b1-2)Man(a1-3)]Man(b1-4)GlcNAc(b1-4)[Fuc(a1-6)]GlcNAc. An outline of the steps: as §1
Assay [13] has as its target GlcNAc(b1-3)Gal(b1-4)GlcNAc(b1-3)Gal(b1-4)GlcNAc(b1-3)Gal(b1-4)GlcNAc(b1-3)Gal(b1-4)GlcNAc(b1-2)Man(a1-3)[GlcNAc(b1-3)Gal(b1-4)GlcNAc(b1-3)Gal(b1-4)GlcNAc(b1-3)Gal(b1-4)GlcNAc(b1-3)Gal(b1-4)GlcNAc(b1-2)Man(a1-6)]Man(b1-4)GlcNAc(b1-4)GlcNAc. An outline of the steps:
as §1

For assay [14], the target named is GlcNAc(b1-3)Gal(b1-4)GlcNAc(b1-3)Gal(b1-4)GlcNAc(b1-3)Gal(b1-4)GlcNAc(b1-3)Gal(b1-4)GlcNAc(b1-2)Man(a1-3)[GlcNAc(b1-3)Gal(b1-4)GlcNAc(b1-3)Gal(b1-4)GlcNAc(b1-3)Gal(b1-4)GlcNAc(b1-3)Gal(b1-4)GlcNAc(b1-2)Man(a1-6)]Man(b1-4)GlcNAc(b1-4)[Fuc(a1-6)]GlcNAc. The procedure, abridged: as §1
Assay [15] has as its target GlcNAc(b1-3)Gal(b1-4)GlcNAc(b1-3)Gal(b1-4)GlcNAc(b1-3)Gal(b1-4)GlcNAc(b1-3)Gal(b1-4)GlcNAc(b1-2)[GlcNAc(b1-3)Gal(b1-4)GlcNAc(b1-3)Gal(b1-4)GlcNAc(b1-3)Gal(b1-4)GlcNAc(b1-3)Gal(b1-4)GlcNAc(b1-6)]Man(a1-6)[GlcNAc(b1-3)Gal(b1-4)GlcNAc(b1-3)Gal(b1-4)GlcNAc(b1-3)Gal(b1-4)GlcNAc(b1-3)Gal(b1-4)GlcNAc(b1-2)Man(a1-3)]Man(b1-4)GlcNAc(b1-4)[Fuc(a1-6)]GlcNAc. The procedure, abridged: as §1

Assay [16] addresses GlcNAc(b1-3)Gal(b1-4)GlcNAc(b1-3)Gal(b1-4)GlcNAc(b1-3)GalNAc. The procedure, abridged: as §1
Assay [17] addresses GlcNAc(b1-3)Gal(b1-4)GlcNAc(b1-3)GalNAc. The procedure, abridged: as §1
Assay [18] concerns the target GlcNAc(b1-3)Gal(b1-4)GlcNAc(b1-3)[GlcNAc(b1-3)Gal(b1-4)GlcNAc(b1-3)]GalNAc. The procedure, abridged:
as §1

Assay [19] addresses GlcNAc(b1-3)Gal(b1-4)GlcNAc(b1-6)[Gal(b1-3)]GalNAc. An outline of the steps: as §1

The list shows a part of the results.

B1: HPAIIITrx (Helix pomatia), Q1KM18 (protein)
chain: MLFVTIISLGLLAIVHGQCALKTIAFSAAIDREQTFDANQVVIYDIVITNHGNAYDNSTGLFTAPVDGMYSFQLNLLTIKEKEGWLELVHNGQLKVSVYAKQDSTYDSSSNSVIIKMKEGDRVNVRAHKKSGLFGRDDELYNTFSGHFLSGL
As to B1, the “glycan array binding signal (z-score)” value is -0.39 with GlcNAc(b1-3)Fuc; -0.437 with GlcNAc(b1-3)Gal; -0.233 in [1]; -0.205 with GlcNAc(b1-3)Gal(b1-4)Glc; -0.37 in [2]; -0.364 in [3]. Besides, the “glycan array binding signal (z-score)” value was -0.158 in assay [4]; -0.003 in assay [5]; -0.404 in assay [6]; 0.693 in assay [7]; -0.228 in assay [8]; -0.265 in assay [9]. Further, the “glycan array binding signal (z-score)” value in [10] is -0.4; in assay [11], -0.269; in assay [12], -0.301; in [13], -0.324; in [14], -0.474; in assay [15], -0.316. The “glycan array binding signal (z-score)” value in assay [16] is 0.103; in assay [17] it was -0.383; in assay [18], -0.43; in assay [19] it was -0.382.

Values taken from the supplement of paper PMC8728848.
